# Experimental data from PubChem BioAssay AID1345082 (National Center for Advancing Translational Sciences (NCATS), 2018).
# In all, about 94,000 compounds went through this assay and about 4,000 (4.3%) were called active. The shares of active, inactive and inconclusive entries below differ from those in the screen. Calls follow the shape of the dose curve; as a rule, active = well fitted inhibition curve with a large enough effect; inconclusive = small, poorly fitted or top-dose-only effect; inactive = no such curve, though single readings can be large or run the other way. Potencies beside an inconclusive call are fits to weak or partial responses and may not hold up.
# Test: Cytotoxic Profiling in NIH 3T3 Cell Line of Diverse Libraries Using Quantitative High-Throughput Screening; also: nearly all actives have a fitted effect of over 55% in size
# Settings: NIH 3T3 viability, CellTiter-Glo ATP luminescence, 48-72 h; series mostly up to 96.7 µM
# Procedure, shortened: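 NIH 3T3 cells at 400 cells/well received 23 nL of compound by pintool and were incubated 48 or 72 h at 37 °C. Viability was read as ATP-coupled CellTiter-Glo luminescence.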
# Potency is read from the fitted curve at half-maximal effect; tags tell the direction and shape of the fitted curve.
row,Structure (SMILES),Potency
1,CCOc1ccc(NC(=O)Cn2c(C)ccc(NC(=O)Nc3ccc(C)cc3)c2=O)cc1,inactive
2,O=C(c1ccc(Cl)cc1)N1CC2(CCN(Cc3ccc(Cl)cc3)CC2)Cc2ccccc21,active: 35.5 µM
3,COc1ccc(CNC(=O)C2CCN(C(=O)c3cc4c(=O)[nH]c(C)cn4n3)CC2)cc1,inactive
4,COc1cccc(-c2cc(C3CCN(C(=O)Nc4cc(Cl)ccc4C)CC3)[nH]n2)c1,"inconclusive: 39.8 µM [inhibitor, partial curve, poor fit]"
5,Cc1ccc(OCc2nc(C3CN(C(=O)c4ccc(Cn5nc(C)cc5C)o4)C3)no2)cc1,"inconclusive: 39.8 µM [inhibitor, partial curve, poor fit]"
6,COc1ccc(-c2cc(N3CCCC(NC(=O)c4cccc(Br)c4)C3)n[nH]2)cc1 (configuration not stated),"inconclusive: 50.1 µM [inhibitor, partial curve, poor fit]"
7,CCCS(=O)(=O)N1CCC(F)(c2nc(CC(C)C)no2)CC1,"inconclusive: 44.7 µM [inhibitor, partial curve, poor fit]"
8,COCCn1c(=O)c(C(=O)N2CCN(C(=O)c3cccc(Cl)c3)CC2)nc2cccnc21,inactive
9,CCN1c2cc(C(=O)Nc3cccc(OC(F)(F)F)c3)ccc2C(=O)N2CCCCC21 (configuration not stated),"inconclusive: 14.1 µM [inhibitor, full curve, poor fit]"
10,C[C@H](O)c1c(-c2ccc(Cl)cc2)noc1C(=O)NC1CC1,"inconclusive: 100 µM [inhibitor, partial curve]"
11,CCOC(=O)[C@@H]1[C@@H](OC(N)=O)C(=O)N(C(C)C)C12CCN(S(=O)(=O)c1cccs1)CC2,"inconclusive: 44.7 µM [inhibitor, partial curve, poor fit]"
12,OC1CC(c2cc(N3CCC(c4nc5ccccc5[nH]4)CC3)ncn2)C1 (configuration not stated),"inconclusive: 22.4 µM [inhibitor, partial curve, poor fit]"
13,CCOCc1nc(C2CCCN(C(=O)c3ccc(C)s3)C2)no1 (configuration not stated),"inconclusive: 15.8 µM [inhibitor, partial curve, poor fit]"
14,COc1ccc(C(=O)N[C@H]2CO[C@H]3[C@@H]2OC[C@H]3OC(=O)Nc2ccccc2)cc1,"inconclusive: 31.6 µM [inhibitor, full curve]"
15,COc1ccccc1CNC(=O)C1CCCN(C(=O)c2cccnc2)CCC(=O)NCC1 (configuration not stated),"inconclusive: 39.8 µM [inhibitor, partial curve, poor fit]"
16,CN1CC(=O)N(c2ccc(Cl)cc2)Cc2c(NCC(C)(C)C)ncnc21,"inconclusive: 50.1 µM [inhibitor, partial curve, poor fit]"
17,CN(C)Cc1nnc(C2CC(NC(=O)Cc3c(F)cccc3Cl)C2)n1C (configuration not stated),"inconclusive: 100 µM [inhibitor, partial curve, poor fit]"
18,COc1ccccc1N1CCN(C(=O)c2ccc3c(c2)C(O)CCCCCN3C)CC1 (configuration not stated),"inconclusive: 50.1 µM [inhibitor, partial curve, poor fit]"
19,Cc1noc(C)c1Cc1ccc(C(=O)N2CCC(OCCOc3ccccc3)CC2)o1,"inconclusive: 22.4 µM [inhibitor, partial curve]"
20,O=C(CCc1nc(C2CCCN2Cc2ccc3[nH]ccc3c2)no1)N1CCCC1 (configuration not stated),"inconclusive: 63.1 µM [inhibitor, partial curve, poor fit]"
21,O=C(NCc1cccs1)C1CN(S(=O)(=O)c2cccnc2)CC12CCCCC2 (configuration not stated),inactive

row,Structure (SMILES),Potency
1,Cc1c(F)cccc1NC(=O)N1CC2CC(C1)[C@H]1CCCC(=O)N1C2 (some centres not stated),inactive
2,Cc1ccccc1C(=O)NC1CCCN(c2ccc3nnc(-c4ccccc4)n3n2)C1 (configuration not stated),"inconclusive: 56.2 µM [inhibitor, partial curve, poor fit]"
3,COCc1ncc(C)n1CC1CCCN(Cc2cccnc2)C1 (configuration not stated),inactive
4,Cc1cccc(CN2C[C@@H]3C(=O)N(CCN4CCc5ccccc5C4)C(=O)[C@@H]3C2)c1,"inconclusive: 50.1 µM [inhibitor, partial curve, poor fit]"
5,CCOCCNC(=O)C1CCCN1c1nccc(Nc2ccccc2F)n1 (configuration not stated),inactive
6,Cc1cc(F)ccc1OC1CN(Cc2ccc(N(C)C)cc2)C1,"inconclusive: 56.2 µM [inhibitor, partial curve, poor fit]"
7,COc1ccc(Cn2c(=O)c(C(=O)NC3CC3)nc3cccnc32)cc1,inactive
8,O=C1c2c(nc(CNCc3ccc4c(c3)OCO4)n2Cc2ccccc2)NCCN1Cc1ccccc1F,"inconclusive: 44.7 µM [inhibitor, partial curve, poor fit]"
9,O=C(NCC1CCCCO1)c1ccc(OC2CCN(C(=O)C3CC3)CC2)cc1 (configuration not stated),"inconclusive: 35.5 µM [inhibitor, partial curve, poor fit]"
10,O=C1NCCOCCCN(C(=O)C2CCCC2)[C@H]2CCCC[C@@H]12,"inconclusive: 70.8 µM [inhibitor, partial curve, poor fit]"
11,OCC1(CN2CCCC2)CCN(Cc2ccc(Cl)cc2F)CC1,"inconclusive: 79.4 µM [inhibitor, partial curve, poor fit]"
12,Cc1nc(C(=O)N2CC(=O)N(C3CCCCC3)CC(OCc3ccccc3)C2)cs1 (configuration not stated),inactive
13,O=C(C1CC1)N1CCC(C(=O)N2CCCC(c3nc4ncccc4[nH]3)C2)CC1 (configuration not stated),inactive
14,COc1ccccc1-c1cccc(COc2ccc3c(cnn3CC[S+](C)(=O)[O-])c2)c1,"inconclusive: 28.2 µM [inhibitor, full curve]"
15,CC(=O)N1CC(N2C(=O)c3c(c(C)nn3-c3ccccc3)C2C(C)C)C1 (configuration not stated),inactive
16,COc1cccc(-c2cc3c(=O)n(CCNC(=O)Cc4cccc(F)c4)ccn3n2)c1,"inconclusive: 44.7 µM [inhibitor, partial curve, poor fit]"
17,COCc1noc(Cn2ncc(N(C)CCc3ccccc3)cc2=O)n1,inactive
18,COc1ccccc1CNC(=O)C1CC(=O)N(c2n[nH]c3cccc(F)c23)C1 (configuration not stated),inactive
19,N#Cc1ccc(CN2CCC3(CC2)CC(=O)c2ccccc2O3)cc1,"inconclusive: 50.1 µM [inhibitor, partial curve, poor fit]"
20,CSc1ccc(-c2cccc(C(=O)NCC(=O)NCc3cccc(C(F)(F)F)c3)c2)cc1,"inconclusive: 44.7 µM [inhibitor, partial curve, poor fit]"
21,COc1ccc(C(=O)N2CCC(N3CC4(CCCCC4)C3c3ccncc3)CC2)c(OC)c1 (configuration not stated),"inconclusive: 50.1 µM [inhibitor, partial curve, poor fit]"

row,Structure (SMILES),Potency
1,O=C(NC1CCC(O)CC1)C1CCCN(c2nc(-c3ccccc3)nc3c2CCC3)C1 (configuration not stated),"inconclusive: 79.4 µM [inhibitor, partial curve, poor fit]"
2,CN1CCN([C@@H]2[C@H](O)[C@H](CO)O[C@@H]2CNC(=O)c2ccco2)CC1,inactive
3,O=C1[C@@H]2C[C@@H](O)CN2C2(CN(Cc3ccccc3)C2)C(=O)N1Cc1cccc(Cl)c1,"inconclusive: 112 µM [inhibitor, partial curve, poor fit]"
4,Cc1noc(-c2ccccc2Cl)c1C(=O)NCc1ccc(F)cc1F,"inconclusive: 50.1 µM [inhibitor, partial curve, poor fit]"
5,CN1CC(=O)N(C2CCCNCC2)Cc2c1ncnc2N1CCC(N2CCCCC2)CC1 (configuration not stated),inactive
6,O=C(NCc1ccc(Cl)cc1)c1cc(-c2ccc[nH]2)n[nH]1,"inconclusive: 50.1 µM [inhibitor, partial curve, poor fit]"
7,O=C(c1ccncc1)N1CC[C@](O)(c2ccccc2)[C@H](N2CCCC2)C1,"inconclusive: 70.8 µM [inhibitor, single point]"
8,CN(C)C[C@@H]1CN(Cc2ccncc2)C[C@H]1NC(=O)c1ccoc1,inactive
9,COc1cccc(CNC(=O)C2CCN(c3nccc(Nc4ccccc4OC)n3)CC2)c1,active: 39.8 µM
10,COc1ccc([S+](=O)([O-])c2nnn3c2nc(NCc2ccc(F)cc2)c2ccccc23)cc1,"inconclusive: 44.7 µM [inhibitor, partial curve, poor fit]"
11,O=C1[C@@H]2C[C@@H](CN2C(=O)c2ccc(C(F)(F)F)cc2)Oc2ccccc2N1Cc1ccccn1,"inconclusive: 56.2 µM [inhibitor, partial curve, poor fit]"
12,CC(C)(C)NC(=O)C[C@@H]1CCNC[C@@H]1Cc1cc(-c2ccc(C(C)(C)C)cc2)on1,active: 22.4 µM
13,O=C(NCC1CC1)c1nc2c(o1)CCN(Cc1cccc(O)c1)CC2,active: 100 µM
14,COc1ccc(C(=O)N2CCC3(CC2)CC(Cc2nc(-c4ccccc4)no2)CCO3)cc1 (configuration not stated),"inconclusive: 44.7 µM [inhibitor, partial curve, poor fit]"
15,CN(C)C[C@@H]1CN(S(C)(=O)=O)C[C@H]1NC(=O)c1ccnn1C,inactive
16,COc1ccc([C@H]2C[C@@H](O)[C@@H](O)[C@@H]2NC(=O)c2cc(C)oc2C(F)(F)F)cc1,inactive
17,O=C1CC2(CCN([S+](=O)([O-])c3cccs3)CC2)Oc2ccccc2N1c1ccccc1,"inconclusive: 44.7 µM [inhibitor, partial curve, poor fit]"
18,CCn1cc(CN2CC[C@H]3C(=O)NCCCCCCN(Cc4ccncc4)[C@@H]3C2)cn1,inactive
19,COc1ccccc1-c1cc(C(=O)NCCc2ccccc2F)nn2cnnc12,"inconclusive: 39.8 µM [inhibitor, partial curve, poor fit]"
20,Cc1nc(-c2ccc(F)cc2)n(CC(=O)Nc2ccc(C(F)(F)F)cc2)c(=O)c1CCO,"inconclusive: 44.7 µM [inhibitor, partial curve]"
